Where “and” joins values, the source holds several entries; their conditions need not be identical. Equal values may be shown once. Further values from the same series stand in other lists.
Experiment: xn = mol fraction of the nth substance listed

CO + O
Settings	viscosity
293.15 K, 101 kPa, x1 = 0.059	1.253 mPa·s
293.15 K, 101 kPa, x1 = 0.19	1.68 mPa·s
293.15 K, 101 kPa, x1 = 0.27	1.77 mPa·s
293.15 K, 101 kPa, x1 = 0.36	1.798 mPa·s
293.15 K, 101 kPa, x1 = 0.46	1.681 mPa·s
293.15 K, 101 kPa, x1 = 0.57	1.513 mPa·s
293.15 K, 101 kPa, x1 = 0.69	1.192 mPa·s
293.15 K, 101 kPa, x1 = 0.83	0.874 mPa·s
293.15 K, 101.33 kPa, x1 = 0.0588	1.338 mPa·s
293.15 K, 101.33 kPa, x1 = 0.123	1.639 mPa·s
293.15 K, 101.33 kPa, x1 = 0.194	1.829 mPa·s
293.15 K, 101.33 kPa, x1 = 0.232	1.876 mPa·s
293.15 K, 101.33 kPa, x1 = 0.25	1.89 mPa·s
293.15 K, 101.33 kPa, x1 = 0.273	1.881 mPa·s
293.15 K, 101.33 kPa, x1 = 0.458	1.629 mPa·s
293.15 K, 101.33 kPa, x1 = 0.692	1.142 mPa·s
298.15 K, 100 kPa, x1 = 0.159	1.501 mPa·s
298.15 K, 100 kPa, x1 = 0.2474	1.577 mPa·s
298.15 K, 100 kPa, x1 = 0.25	1.581 mPa·s
298.15 K, 100 kPa, x1 = 0.3	1.575 mPa·s
298.15 K, 100 kPa, x1 = 0.306	1.636 mPa·s
298.15 K, 100 kPa, x1 = 0.3642	1.524 mPa·s
298.15 K, 100 kPa, x1 = 0.5	1.325 mPa·s
298.15 K, 100 kPa, x1 = 0.6519	1.061 mPa·s
298.15 K, 100 kPa, x1 = 0.75	0.9031 mPa·s
298.15 K, 100 kPa, x1 = 0.8031	0.827 mPa·s
298.15 K, 101 kPa, x1 = 0.0574	1.172 mPa·s
298.15 K, 101 kPa, x1 = 0.059	1.098 mPa·s
298.15 K, 101 kPa, x1 = 0.0813	1.255 mPa·s
298.15 K, 101 kPa, x1 = 0.1233	1.419 mPa·s
298.15 K, 101 kPa, x1 = 0.1282	1.247 mPa·s
298.15 K, 101 kPa, x1 = 0.19	1.444 mPa·s
298.15 K, 101 kPa, x1 = 0.1942	1.582 mPa·s
298.15 K, 101 kPa, x1 = 0.2247	1.624 mPa·s
298.15 K, 101 kPa, x1 = 0.2541	1.66 mPa·s
298.15 K, 101 kPa, x1 = 0.27	1.502 mPa·s
298.15 K, 101 kPa, x1 = 0.2726	1.671 mPa·s
298.15 K, 101 kPa, x1 = 0.285	1.624 mPa·s
298.15 K, 101 kPa, x1 = 0.2948	1.426 mPa·s
298.15 K, 101 kPa, x1 = 0.3578	1.425 mPa·s
298.15 K, 101 kPa, x1 = 0.3599	1.576 mPa·s
298.15 K, 101 kPa, x1 = 0.36	1.572 mPa·s
298.15 K, 101 kPa, x1 = 0.457	1.426 mPa·s
298.15 K, 101 kPa, x1 = 0.46	1.409 mPa·s
298.15 K, 101 kPa, x1 = 0.525	1.351 mPa·s
298.15 K, 101 kPa, x1 = 0.5671	1.234 mPa·s
298.15 K, 101 kPa, x1 = 0.57	1.185 mPa·s and 1.339 mPa·s
298.15 K, 101 kPa, x1 = 0.639	1.159 mPa·s
298.15 K, 101 kPa, x1 = 0.69	1.004 mPa·s
298.15 K, 101 kPa, x1 = 0.6926	1.024 mPa·s
298.15 K, 101 kPa, x1 = 0.756	0.889 mPa·s
298.15 K, 101 kPa, x1 = 0.816	0.881 mPa·s and 0.803 mPa·s
298.15 K, 101 kPa, x1 = 0.83	0.7619 mPa·s and 0.805 mPa·s
298.15 K, 101 kPa, x1 = 0.8345	0.7885 mPa·s
298.15 K, 101 kPa, x1 = 0.847	0.761 mPa·s
298.15 K, 101 kPa, x1 = 0.899	0.755 mPa·s
298.15 K, 101 kPa, x1 = 0.907	0.681 mPa·s
298.15 K, 101 kPa, x1 = 0.964	0.596 mPa·s
298.15 K, 101.33 kPa, x1 = 0.0625	1.162 mPa·s
298.15 K, 101.33 kPa, x1 = 0.1999	1.49 mPa·s
298.15 K, 101.33 kPa, x1 = 0.2499	1.585 mPa·s
298.15 K, 101.33 kPa, x1 = 0.3332	1.558 mPa·s
298.15 K, 101.33 kPa, x1 = 0.6666	1.06 mPa·s
303.15 K, 101 kPa, x1 = 0.024	0.8816 mPa·s
303.15 K, 101 kPa, x1 = 0.059	0.982 mPa·s
303.15 K, 101 kPa, x1 = 0.0597	0.991 mPa·s
303.15 K, 101 kPa, x1 = 0.0927	1.105 mPa·s
303.15 K, 101 kPa, x1 = 0.12	1.145 mPa·s
303.15 K, 101 kPa, x1 = 0.128	1.215 mPa·s
303.15 K, 101 kPa, x1 = 0.1662	1.281 mPa·s
303.15 K, 101 kPa, x1 = 0.19	1.257 mPa·s
303.15 K, 101 kPa, x1 = 0.1986	1.324 mPa·s
303.15 K, 101 kPa, x1 = 0.2086	1.349 mPa·s
303.15 K, 101 kPa, x1 = 0.2491	1.358 mPa·s
303.15 K, 101 kPa, x1 = 0.27	1.329 mPa·s
303.15 K, 101 kPa, x1 = 0.2841	1.358 mPa·s
303.15 K, 101 kPa, x1 = 0.3041	1.364 mPa·s
303.15 K, 101 kPa, x1 = 0.3084	1.354 mPa·s
303.15 K, 101 kPa, x1 = 0.36	1.353 mPa·s
303.15 K, 101 kPa, x1 = 0.3673	1.321 mPa·s
303.15 K, 101 kPa, x1 = 0.4203	1.232 mPa·s
303.15 K, 101 kPa, x1 = 0.46	1.269 mPa·s
303.15 K, 101 kPa, x1 = 0.4752	1.199 mPa·s
303.15 K, 101 kPa, x1 = 0.5235	1.141 mPa·s
303.15 K, 101 kPa, x1 = 0.5657	1.084 mPa·s
303.15 K, 101 kPa, x1 = 0.57	1.143 mPa·s and 1.184 mPa·s
303.15 K, 101 kPa, x1 = 0.6735	0.9252 mPa·s
303.15 K, 101 kPa, x1 = 0.69	0.9634 mPa·s and 0.964 mPa·s
303.15 K, 101 kPa, x1 = 0.7522	0.8309 mPa·s
303.15 K, 101 kPa, x1 = 0.8172	0.7361 mPa·s
303.15 K, 101 kPa, x1 = 0.83	0.7112 mPa·s and 0.726 mPa·s
303.15 K, 101 kPa, x1 = 0.92	0.6056 mPa·s
303.15 K, 101.33 kPa, x1 = 0.0464	0.9945 mPa·s
303.15 K, 101.33 kPa, x1 = 0.0588	1.056 mPa·s
303.15 K, 101.33 kPa, x1 = 0.1119	1.133 mPa·s
303.15 K, 101.33 kPa, x1 = 0.123	1.24 mPa·s
303.15 K, 101.33 kPa, x1 = 0.1593	1.285 mPa·s
303.15 K, 101.33 kPa, x1 = 0.194	1.378 mPa·s
303.15 K, 101.33 kPa, x1 = 0.2274	1.379 mPa·s
303.15 K, 101.33 kPa, x1 = 0.273	1.417 mPa·s
303.15 K, 101.33 kPa, x1 = 0.2752	1.304 mPa·s
303.15 K, 101.33 kPa, x1 = 0.3063	1.445 mPa·s
303.15 K, 101.33 kPa, x1 = 0.36	1.378 mPa·s
303.15 K, 101.33 kPa, x1 = 0.3984	1.356 mPa·s
303.15 K, 101.33 kPa, x1 = 0.458	1.273 mPa·s
303.15 K, 101.33 kPa, x1 = 0.4607	1.213 mPa·s
303.15 K, 101.33 kPa, x1 = 0.5075	1.216 mPa·s
303.15 K, 101.33 kPa, x1 = 0.6385	0.9883 mPa·s
303.15 K, 101.33 kPa, x1 = 0.692	0.933 mPa·s
303.15 K, 101.33 kPa, x1 = 0.6981	0.927 mPa·s
303.15 K, 101.33 kPa, x1 = 0.7989	0.7364 mPa·s
303.15 K, 101.33 kPa, x1 = 0.8322	0.746 mPa·s
303.16 K, 101.33 kPa, x1 = 0.0583	1.013 mPa·s
303.16 K, 101.33 kPa, x1 = 0.1229	1.209 mPa·s
303.16 K, 101.33 kPa, x1 = 0.2719	1.384 mPa·s
303.16 K, 101.33 kPa, x1 = 0.4571	1.238 mPa·s
303.16 K, 101.33 kPa, x1 = 0.5663	1.091 mPa·s
303.16 K, 101.33 kPa, x1 = 0.6913	0.913 mPa·s
303.16 K, 101.33 kPa, x1 = 0.8341	0.717 mPa·s
308.15 K, 100 kPa, x1 = 0.047	0.868 mPa·s
308.15 K, 100 kPa, x1 = 0.159	1.181 mPa·s
308.15 K, 100 kPa, x1 = 0.306	1.236 mPa·s
308.15 K, 101 kPa, x1 = 0.059	0.875 mPa·s
308.15 K, 101 kPa, x1 = 0.0597	0.887 mPa·s
308.15 K, 101 kPa, x1 = 0.12	1.009 mPa·s
308.15 K, 101 kPa, x1 = 0.128	1.08 mPa·s
308.15 K, 101 kPa, x1 = 0.19	1.111 mPa·s
308.15 K, 101 kPa, x1 = 0.27	1.157 mPa·s
308.15 K, 101 kPa, x1 = 0.3041	1.21 mPa·s
308.15 K, 101 kPa, x1 = 0.4203	1.099 mPa·s
308.15 K, 101 kPa, x1 = 0.46	1.154 mPa·s
308.15 K, 101 kPa, x1 = 0.5657	0.9867 mPa·s
308.15 K, 101 kPa, x1 = 0.57	1.058 mPa·s

— the CheMixHub viscosity set
